About 12,000 (3.5%) of roughly 340,000 compounds were called active. This list was built around the results that the source calls inconclusive (neither active nor inactive); the mix of calls is not that of the screen. Calls come from the whole dose curve; as a rule, active = well fitted inhibition curve with a large enough effect; inconclusive = small, poorly fitted or top-dose-only effect, or another doubt; inactive = no such curve, though single readings can be large or run the other way. No potency is given beside an inconclusive call; the fits are too rough.
Assay: qHTS Assay for Inhibitors of Hepatitis C Virus (HCV)
Conditions: Huh7.5.1 HCVcc-Cre (HCVcc is cell-culture hepatitis C virus) infection, luciferase reporter, 44 h; activity change, negative = inhibition: at 41.8 µM (top of the series) unless noted
How it was run: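 1,000 cells/well; 4 h culture; + compound; + HCVcc-Cre (~0.5 moi); 44 h; luciferase substrate, RT 15 min; read 15 sec.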
In the case of `O=C(/C=C\NCC(=O)c1ccccc1)c1ccc(F)cc1`, the Potency is reported as “inactive”.
In the case of `C[C@H]1CC[C@@H]2[C@@H](C)[C@H]3[C@H](C[C@H]4[C@@H]5CC=C6C[C@@H](O[C@@H]7O[C@H](CO)[C@H](O)[C@H](O[C@@H]8O[C@H](CO)[C@@H](O)[C@H](O)[C@H]8O)[C@H]7O[C@@H]7O[C@@H](C)[C@H](O)[C@@H](O)[C@H]7O)CC[C@]6(C)[C@H]5CC[C@]34C)N2C1`, the Potency is reported as inconclusive [inhibitor, single point] and the activity change, negative = inhibition is reported as inactive: 0.307% [at 8.37 µM].
With `CCn1c(COc2ccccc2C)nnc1SCC(=O)CC(=O)Nc1ccccc1OC` the Potency was inconclusive [inhibitor, full curve, poor fit].
With `CCN1C(=O)[C@H]2[C@@H](c3ccc(-c4ccccc4)c(OC)c3)N[C@@](CC(C)C)(C(=O)OC)[C@H]2C1=O` the Potency was inconclusive [inhibitor, full curve].
With `O=C(Nc1ccc2c(c1)CCC2)c1cc(F)cc(F)c1` the Potency was inconclusive [inhibitor, partial curve].
In the case of `FC(F)(F)c1ccc(-c2nnc(-c3ccccn3)c(-c3ccccn3)n2)nc1`, the Potency is reported as “inactive”.
In the case of `O=C(CCCCCNc1nc(=S)[nH]c2ccccc12)NCCc1ccc(Cl)cc1`, the Potency is reported as “inactive”.
In the case of `Cc1ccc(S(=O)(=O)N2CCCC2CNC(=O)C(=O)NCc2cccs2)cc1` (centres undefined), the Potency is reported as “inactive”.
With `Cc1nn(C)c(C)c1NC(=O)CN1CCC(O)(c2ccc3c(c2)OCO3)CC1` the Potency was “inactive”.
With `Cn1nc(C(=O)Nc2nc(-c3ccc(F)cc3)cs2)ccc1=O` the Potency was inconclusive [inhibitor, partial curve].
In the case of `CS(=O)(=O)Nc1cccc(C2=NN(C(=O)c3ccco3)C(c3ccco3)C2)c1` (centres undefined), the Potency is reported as inconclusive [inhibitor, partial curve].
In the case of `O=C1C2CCCN2C(=O)N1CCCCN1CCN(c2cccc(Cl)c2)CC1` (centres undefined), the Potency is reported as inconclusive [inhibitor, partial curve].
For `COc1cccc(CNC(=O)c2ccc(CS(=O)(=O)Cc3ccccc3C)o2)c1`, the Potency was “inactive”.
In the case of `CCN(CC)c1ccc(/C=C2/C(=O)NC(=O)N(CC3CCCO3)C2=O)cc1` (centres undefined), the Potency is reported as inconclusive [inhibitor, single point].
For `Oc1[nH]c2ccccc2c1N=NC(=S)N1CCOCC1`, the Potency was active: 8.91 µM.
In the case of `CS(=O)(=O)c1ccc(C(=O)OCC(=O)Nc2cccnc2Cl)cc1[N+](=O)[O-]`, the Potency is reported as inconclusive [inhibitor, single point].
With `COc1ccc(NC(=O)C2C3C=CC(C3)C2C(=O)O)cc1` (centres undefined) the Potency was “inactive”.
With `COc1ccc2c(c1)[nH]c(=O)c1sc3ccccc3c12` the Potency was inconclusive [inhibitor, full curve, poor fit].
For `CCc1ccc(CCC(=O)Nc2ccc(C(=O)O)cc2)o1`, the Potency was “inactive”.
For `c1ccc(Nc2ccnc(Nc3ccccc3)n2)cc1`, the Potency was inconclusive [inhibitor, single point].
For `COC(=O)c1sccc1NC(=O)c1ccc(Br)o1`, the Potency was inconclusive [inhibitor, single point].
For `CC(C)OP(=O)(c1ccc(N(C)C)cc1)C(Nc1ccccc1)c1ccccc1` (centres undefined), the Potency was “inactive”.
For `C=CCn1c(C)cc(-c2csc(NC)n2)c1C`, the Potency was inconclusive [inhibitor, full curve, poor fit].
With `C/C(Cc1ccccc1)=N\NC(=O)CNC(=O)COc1cccc(C)c1` the Potency was “inactive”.
In the case of `CCc1cc2c(NCC3CCCO3)nc(C)nc2s1` (centres undefined), the Potency is reported as inconclusive [inhibitor, full curve].
In the case of `COc1ccc(Nc2c3ccccc3nc3ccccc23)cc1`, the Potency is reported as inconclusive [inhibitor, single point].
In the case of `CCOC(=O)c1cccc(NC(=O)/C=C/c2ccc3c(c2)OCO3)c1`, the Potency is reported as active: 12.6 µM.
With `Cc1ccc(NC(=S)N2CCC(c3ccc(C)cc3)C2)cc1` (centres undefined) the Potency was inconclusive [inhibitor, single point].
In the case of `CC(=O)Cc1nsc(NC(=O)c2cc(-c3cccc(C(F)(F)F)c3)oc2C)n1`, the Potency is reported as inconclusive [inhibitor, single point].
With `Cc1cccc(C)c1N(CC(=O)N(C)Cc1ccccc1)S(C)(=O)=O` the Potency was “inactive”.
With `Cc1ccc(CN2CCN(Cc3ccc(-n4cccn4)cc3C)CC2CCO)cc1` (centres undefined) the Potency was “inactive”.
With `Cc1cccc(Nc2n[nH]c(C)c2[N+](=O)[O-])c1` the Potency was “inactive”.
For `CC(C)(C)c1ccc(/C=C2\Oc3cc(OC(=O)N4CCOCC4)ccc3C2=O)cc1`, the Potency was inconclusive [inhibitor, partial curve].
With `COc1ccc(Nc2nc(C(=O)N(CCO)Cc3ccccc3)cs2)cc1` the Potency was inconclusive [inhibitor, partial curve, poor fit].
For `N#C/C(=N/Nc1ccc(OC(F)(F)F)cc1)C(N)=S`, the Potency was inconclusive [inhibitor, full curve].
With `COc1ccc(C)cc1NC(=O)CCC(=O)Nc1ccc2nc(N3CCN(C)CC3)cc(C)c2c1` the Potency was active: 10 µM.
With `Cc1ccc(C(OCC(O)CNC(C)c2ccccc2)c2ccccc2)cc1` (centres undefined) the Potency was inconclusive [inhibitor, partial curve, poor fit].
In the case of `Cc1ccc(/C=N/NC(=O)c2nnn(-c3nonc3N)c2CNc2ccccc2)cc1`, the Potency is reported as inconclusive [inhibitor, full curve].
For `CC(C)CC(c1nnnn1CCc1ccccc1)N1CCN(C(=O)c2ccco2)CC1` (centres undefined), the Potency was “inactive”.
With `O=c1[nH]c2cc3c(cc2cc1CN(Cc1nnnn1C1CCCC1)C1CCCC1)OCCO3` the Potency was inconclusive [inhibitor, partial curve].
In the case of `O=c1oc2ccccc2nc1/C=C(\O)c1ccc(Br)cc1`, the Potency is reported as “inactive”.
In the case of `C[n+]1c2n(c3ccccc31)N=C(c1cc(C(C)(C)C)c(O)c(C(C)(C)C)c1)CS2`, the Potency is reported as inconclusive [inhibitor, single point].
In the case of `CCc1nc2ccccc2c(C(=O)NCc2ccccc2)c1C`, the Potency is reported as “inactive”.
For `COc1ccc(C(NC(=O)c2cc(OC)ccc2OC)c2ccccc2)cc1` (centres undefined), the Potency was inconclusive [inhibitor, partial curve].
For `COc1cc(OC)c(C2Nc3cccc4cccc(c34)N2)c(OC)c1`, the Potency was inconclusive [inhibitor, single point].
In the case of `CC1CCc2c(sc3ncnc(NCCN4CCOCC4)c23)C1` (centres undefined), the Potency is reported as inconclusive [inhibitor, partial curve].
In the case of `Cc1ccc(OCCNC(=O)c2cccc(Oc3ccc(C(F)(F)F)cc3[N+](=O)[O-])c2)cc1`, the Potency is reported as inconclusive [inhibitor, single point].
With `COc1ccccc1C(C)NCC(=O)NC(=O)NCc1ccco1` (centres undefined) the Potency was “inactive”.
With `CCOC(=O)C1=C(C)NC(C)=C(C(=O)OCC)C1C(=O)OCC(=O)NC1CCCCC1` the Potency was inconclusive [inhibitor, single point].
With `Cc1ccc(NCC(=O)Nc2cccc(S(=O)(=O)N(C)C)c2)cc1S(=O)(=O)N1CCCCCC1` the Potency was active: 10 µM.
With `CCN(CC)c1cc(CS(=O)c2ccccc2)nc(-c2ccccc2)n1` (centres undefined) the Potency was inconclusive [inhibitor, single point].
For `Cc1nc2ccccn2c1C(=O)N/N=C/c1ccc([N+](=O)[O-])o1`, the Potency was inconclusive [inhibitor, single point].
For `Cc1nn(Cc2ccc([N+](=O)[O-])cc2)c(=O)n1-c1ccc(Cl)cc1`, the Potency was inconclusive [inhibitor, single point].
In the case of `CCCc1cc(C(=O)N2CCCC(Nc3ccc(C)c(C)c3)C2)n(C)n1` (centres undefined), the Potency is reported as “inactive”.
For `CC(=O)c1sc(NC(=O)c2oc3ccc(F)cc3c2C)nc1C`, the Potency was “inactive”.
In the case of `CCOC(=O)c1ccc(N2C(=O)C3CC=CCC3C2=O)cc1` (centres undefined), the Potency is reported as “inactive”.
In the case of `Cc1oc(-c2cccc(Cl)c2)nc1CN1CCCC(C(=O)NC(C)c2ccc3c(c2)OCCO3)C1` (centres undefined), the Potency is reported as inconclusive [inhibitor, partial curve].
For `Cc1ccc(C)c(NC(=O)/C(C#N)=C/c2cn(CC(=O)NCc3ccco3)c3ccccc23)c1`, the Potency was inconclusive [inhibitor, full curve, poor fit].
With `O=C(Nc1ncccn1)c1cccc(F)c1` the Potency was “inactive”.
In the case of `CCc1nnc(NC(=O)CSc2nc(-c3ccccc3)cc(-c3ccc(F)cc3)c2C#N)s1`, the Potency is reported as inconclusive [inhibitor, full curve, poor fit].
For `COc1ccc(C(=O)Nc2ccc(Oc3ncnc4sc(-c5ccccc5)cc34)cc2)cc1OC`, the Potency was inconclusive [inhibitor, single point].
For `Cc1ncc(CN2CCCC(CCC(=O)NCc3ccc(F)c(F)c3)C2)s1` (centres undefined), the Potency was “inactive”.
In the case of `O=C(Nc1c2c(nn1-c1ccc(Cl)cc1)CS(=O)(=O)C2)c1ccc2c(c1)OCO2`, the Potency is reported as inconclusive [inhibitor, partial curve].
For `CN1C[C@@H]2C(c3ccccc3)C3(c4cccnc4)CC2(C3)[C@H]1c1ccccc1` (some centres undefined), the Potency was inconclusive [inhibitor, single point].
With `CSCC[C@H](NC(=O)OC(C)(C)C)c1nnc(SCc2ccc(F)cc2)o1` the Potency was inconclusive [inhibitor, partial curve].
In the case of `CCCC(=O)N1CCN(c2nc3ccc(Br)cc3s2)CC1`, the Potency is reported as active: 10 µM.
In the case of `O=C(Nc1ccncc1)c1sc2ccccc2c1Cl`, the Potency is reported as inconclusive [inhibitor, partial curve, poor fit].
For `COc1ccc(OC)c2[nH]c(=O)c(CCNC(=O)c3cccs3)cc12`, the Potency was inconclusive [inhibitor, single point].

Reference: PubChem BioAssay AID651820 (National Center for Advancing Translational Sciences (NCATS), 2012)
% is set by controls: 0 for no effect and ±100 for the full control effect; potency is the fitted concentration of half-maximal effect; tags give direction and shape of the fitted curve.
